Assay results as given in PubChem BioAssay AID1345083 (National Center for Advancing Translational Sciences (NCATS), 2018).
The campaign covered roughly 94,000 compounds. About 6,200 (6.6%) were called active. The shares of active, inactive and inconclusive entries below differ from those in the screen. Calls come from the whole dose curve; as a rule, active = well fitted inhibition curve with a large enough effect; inconclusive = small, poorly fitted or top-dose-only effect; inactive = flat fitted curve, though single readings scatter. Potencies of inconclusive entries are doubtful fits and often do not repeat.
% is set by controls: 0 for no effect and ±100 for the full control effect; potency is the fitted concentration of half-maximal effect; tags give direction and shape of the fitted curve.

Test: Cytotoxic Profiling in HEK 293 Cell Line of Diverse Libraries Using Quantitative High-Throughput Screening; note: nearly all actives have a fitted effect of over 60% in size
Details: HEK 293 viability, ATP luminescence (CellTiter-Glo), 48-72 h; activity change, negative = cytotoxicity: at 115 µM (top of the series) unless noted; series mostly up to 115 µM
Outline: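 qHTS cytotoxicity; HEK 293, 250 cells/well; compound pinned; 48 or 72 hr, 37 degree Celsius, 5% CO2, 95% humidity; CellTiter-Glo, 10 min RT; luminescence (ATP).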
With `COc1ccc(C(=O)NC2CCN(c3cnn(CC4CC4)c(=O)c3)CC2)c(OC)c1` the Potency was inconclusive: 79.4 µM [inhibitor, partial curve].
For `CC1(C)[C@H]2CC[C@@H](CNC(=O)c3cccc(Br)c3)[C@@H]1C2`, the Potency was active: 100 µM.
With `COC(=O)C1=C(C)N=C2SC=C(CC(=O)NC3CC3)N2C1c1cccc(F)c1` (stereo not given) the “activity change, negative = cytotoxicity” value was inactive: -19.6%.
In the case of `Cc1ccc(NC(=O)c2ccc3c(c2)N(S(C)(=O)=O)CC3)cc1`, the Potency was inconclusive: 8.91 µM [inhibitor, full curve, poor fit].
In the case of `O=C(C1CCC1)N1CCC[C@H](n2c(=O)n(CC3CC3)c3cccnc32)C1`, the Potency was inconclusive: 50.1 µM [inhibitor, partial curve, poor fit].
In the case of `O=c1ccc(-c2cc(-c3cccc4cn[nH]c34)cn3cncc23)c[nH]1`, the Potency was inconclusive: 89.1 µM [inhibitor, partial curve].
For `O=C(CCC1CCN(C(=O)c2ccccc2F)CC1)NC1CC1`, the Potency was inconclusive: 79.4 µM [inhibitor, partial curve, poor fit].
For `COc1ncccc1C(=O)N1CCc2onc(-c3cccc4ccccc34)c2C1`, the Potency was inconclusive: 89.1 µM [inhibitor, single point].
With `Cc1ccc(C(=O)N2CC(N(C)c3ccccc3C)C2)cc1` the Potency was inconclusive: 56.2 µM [inhibitor, partial curve, poor fit].
For `O=C(NC[C@H]1OC[C@@H](N(Cc2ccccc2)Cc2ccccc2)[C@@H]1O)c1ccccc1`, the Potency was inconclusive: 100 µM [inhibitor, partial curve].
With `Cc1ccccc1CN1CCn2nnc(-c3nc(-c4ccsc4)no3)c2C1=O` the Potency was inconclusive: 28.2 µM [inhibitor, partial curve].
In the case of `Cn1c(Cn2cccn2)nnc1C1CC(Nc2ncnc3sccc23)C1` (stereo not given), the Potency was inconclusive: 25.1 µM [inhibitor, full curve].
In the case of `COc1ccccc1NC(=O)CC1CCCN(c2cn[nH]c(=O)c2)C1` (stereo not given), the “activity change, negative = cytotoxicity” value was inactive: 4.07%.
With `O=C(c1ccc(C(F)(F)F)cc1)N1CCC(c2nn(Cc3ccccc3)c(=O)[nH]2)CC1` the “activity change, negative = cytotoxicity” value was inactive: -5.92%.
With `O=C(c1ccc(F)cc1)N1CCCC(C(=O)N2CCC(c3nc4ncccc4[nH]3)C2)C1` (stereo not given) the “outcome” value was “inactive”.
In the case of `CCOCCCNC(=O)CNC(=O)c1cccc(-c2cc(F)ccc2OC)c1`, the Potency was inconclusive: 50.1 µM [inhibitor, partial curve].
In the case of `O=C1N(Cc2ccccc2F)CCOC12CCN(Cc1ccccc1)CC2`, the Potency was inconclusive: 79.4 µM [inhibitor, partial curve, poor fit].
In the case of `CC1(C)[C@H](Cc2cc(CN3CCOCC3)on2)C[C@@H]1NS(C)(=O)=O`, the “activity change, negative = cytotoxicity” value was inactive: -0.747% [at 172 µM].
For `Cn1cc(CN[C@H]2[C@H](O)[C@H](O)C[C@@H]2c2cccnc2)c2ccccc21`, the Potency was active: 100 µM.
In the case of `COc1cccc(NC(=O)[C@@H]2C[C@H](c3ccc(F)cc3)N(Cc3csc(C)n3)C2)c1`, the Potency was active: 63.1 µM.
For `O=C(NCc1ccccc1)N1CCOC(CN(CC2CC2)C(=O)c2cccc(F)c2)C1` (stereo not given), the Potency was inconclusive: 79.4 µM [inhibitor, single point].
With `O=C(NCCNC(=O)C1CC1)c1ccc(-c2cccc(C(F)(F)F)c2)cc1` the Potency was inconclusive: 39.8 µM [inhibitor, full curve].
For `CC1Oc2ccc(NC(=O)Cc3ccccc3)cc2CN(Cc2ccc(Cl)cc2)C1=O` (stereo not given), the Potency was inconclusive: 35.5 µM [inhibitor, full curve, poor fit].
In the case of `O=C(NCc1ccc2c(c1)OCO2)C1CCc2sc(C(=O)N3CCCCCC3)cc2C1` (stereo not given), the Potency was inconclusive: 89.1 µM [inhibitor, partial curve, poor fit].
With `Cc1ccc(-n2c(C3CCN(C(=O)c4nn(C)c5ccccc45)CC3)n[nH]c2=O)cc1` the “activity change, negative = cytotoxicity” value was inactive: -1.68%.
With `Cn1ncc2c(C(=O)NCC3CCCCC3)cc(-c3ccccc3F)nc21` the Potency was inconclusive: 44.7 µM [inhibitor, partial curve, poor fit].
With `COc1ccccc1-c1ccc(C(=O)N2C[C@@H](N(C)C)[C@H](C(C)C)C2)cc1` the Potency was inconclusive: 89.1 µM [inhibitor, single point].
With `O=C(c1cncc(Br)c1)N1CCC(c2nc(C3CCOCC3)no2)CC1` the Potency was inconclusive: 89.1 µM [inhibitor, single point].
For `CCc1ccccc1S(=O)(=O)N1C[C@@H]2C(=O)N(C(CC)c3cccs3)C(=O)[C@@H]2C1` (stereo not given in full), the Potency was inconclusive: 89.1 µM [inhibitor, single point].
For `O=C1NC(C(=O)N2CCN(Cc3ccc4c(c3)OCO4)CC2)Cn2cccc21` (stereo not given), the “activity change, negative = cytotoxicity” value was inactive: -6.75%.
With `Cc1nc(N2CCC(NC(=O)Cc3ccccc3Cl)CC2)cc(C(F)(F)F)n1` the Potency was inconclusive: 10 µM [inhibitor, partial curve, poor fit].
In the case of `O=C(c1ccccc1)N1CC2(CCCCN2Cc2cccnc2)Cc2ccccc21` (stereo not given), the Potency was inconclusive: 79.4 µM [inhibitor, partial curve].
In the case of `COc1cccc(N2CC3(CN(CCOc4ccccc4)C(=O)O3)C2)c1`, the Potency was inconclusive: 112 µM [inhibitor, partial curve].
With `CCCCNC(=O)CC(c1cccc([N+](=O)[O-])c1)c1c[nH]c2c(CC)cccc12` (stereo not given) the Potency was inconclusive: 50.1 µM [inhibitor, partial curve, poor fit].
For `Cc1ccc(CC(=O)NC2CCN(c3cc(C(F)(F)F)ncn3)CC2)cc1`, the Potency was inconclusive: 56.2 µM [inhibitor, partial curve, poor fit].
With `CNC(=O)c1cc(C2CC2)nc2onc(C3CCCN3C(=O)c3cccc(OC)c3)c12` (stereo not given) the “activity change, negative = cytotoxicity” value was inactive: -13.9%.
In the case of `O=C(NC1CCCCC1)C1CCc2nnc(-c3ccc(F)cc3)n21` (stereo not given), the “activity change, negative = cytotoxicity” value was inactive: -11.6% [at 172 µM].
With `CCC(=O)N1CCC(OC2CCN(C(=O)CC3CCCCC3)CC2)CC1` the Potency was inconclusive: 79.4 µM [inhibitor, partial curve, poor fit].
For `O=C(CN1C(=O)NC2(CCOCC2)C1=O)Nc1ccc2c(c1)OCO2`, the “activity change, negative = cytotoxicity” value was inactive: 4.57%.
In the case of `CC(=O)c1cccc(NC(=O)O[C@@H]2CO[C@H]3[C@@H]2OC[C@@H]3NC(=O)Nc2ccccc2)c1`, the Potency was inconclusive: 126 µM [inhibitor, single point].
